The other results are listed elsewhere or left out.
System: PfAP2-HC AP2 domain (GST-tagged)
Assay: gcPBM binding intensity (ln(normalized median fluorescence intensity)); higher = stronger DNA binding
Outline: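 Binding intensity is the highest Masliner-normalised natural-log median intensity over replicate spots in either probe orientation. To obtain it, GST-tagged P. falciparum DNA-binding domains made in E. coli were incubated for 1 h on an Agilent 4 × 180k array of primer-extended double-stranded 36-bp intergenic genomic probes plus negative controls. Detection used Alexa488 anti-GST antibody with scanning at 488 nm.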

| Sequence | gcPBM binding intensity (ln) |
| --- | --- |
| AATAAAAGATCATTTATTCTTTTTTTTCTTTTTAAA [CACACA_negctrl_site1256] | 9.3 |
| AAAATACATAAACGTTCACACATTTAAGATAACGAG [CACACA_site5345] | 9.84 |
| GAAAATTTTTGGTGTACACAAAAAAATCCAAAAAAA [CACACA_site5042] | 9.7 |
| TATGATTGTTTACGTTGTACAGCTGAATTGTTCTTA [XGTACX_site8114] | 9.69 |
| TTTTATTTTATAAAAATAAAAAAAAAATTATTACAA [TGCATGCA_negctrl_site508] | 9.26 |
| TGAAAATAGTTAATTTGTACACAAAAATTAAGAAAA [XGTACX_site5794] | 9.79 |
| AATTAAATAAATGTATGTACATAATAAATATGTATT [XGTACX_site4379] | 9.75 |
| TTTTCGATGTTGGTAGGATGTATGGTACACGTAGTA [TGCATGCA_negctrl_site61] | 9.64 |
| AAAGAAATATATACAAAAATATGAACAATTTATTAT [XGTACX_negctrl_site78] | 9.75 |
| TATGAAAATATATATTGTACAGAATCTATAAAAAAT [XGTACX_site8030] | 9.61 |
| GAATTTATGAACTGTGCATGTAAAAAAAACAACAAA [TGCATGCA_site449] | 9.77 |
| TATAATAATATATATTGTACACACAAAATGGGAAAA [XGTACX_site3911] | 9.91 |
| TATATGAAGCTATAGACACACATATAAAAATATAAT [CACACA_site4850] | 9.81 |
| CATAAACTTTTTAACACACACTTATATATATATATA [CACACA_site4747] | 10 |
| TAATTTTTATGAAGAAGTACAAAATCTACTATCATA [XGTACX_site4985] | 9.15 |
| CTAAATAAAGTTAACACACACATAATATATATATGT [CACACA_site486] | 10 |
| AAAAATTCTTTTTCATCTATATGCAGAAAGAAAAAG [CACACA_negctrl_site1201] | 9.23 |
| TACATCTGTAATGTGTGTACATATATGTATATATTT [XGTACX_site1805] | 9.87 |
| ATATATATAATATGATGTACATATTTATTTATATAT [XGTACX_site7333] | 9.7 |
| AATGAAATAAAATAAAGTACATATATGTAAAAGTAG [XGTACX_site5650] | 10.4 |
| TTTTTTTTTTTTTACACACACAAAATATTATCTGTA [CACACA_site5378] | 9.85 |
| AATTGAAAAGAATGAAGTACACATTTGATGATACAT [XGTACX_site5182] | 9.68 |
| ATATAAAAAAAAGATGAAAAAAAAAATGAAAGAAAG [CACACA_negctrl_site1266] | 9.84 |
| ATTTATATTTATGATACACACACGTATATTCACATA [CACACA_site460] | 9.98 |
